Measurements taken from the supplement of paper PMC12217912.
Some of the results follow. The full chains were built here from the parent and the listed change. Values near 0.05 are background.

B1: TEV protease; numbered along this chain (parent)
chain: MGESLFKGPRDYNPISSSICHLTNESDGHTTSLYGIGFGPFIITNKHLFRRNNGTLVVQSLHGVFKVKDTTTLQQHLVDGRDMIIIRMPKDFPPFPQKLKFREPQREERICLVTTNFQTKSMSSMVSDTSCTFPSGDGIFWKHWIQTKDGQCGSPLVSTRDGFIVGIHSASNFTNTNNYFTSVPKNFMELLTNQEAQQWVSGWRLNADSVLWGGHKVFMVKPEEPFQPVKEATQL

Variants of: B1
Assay: raw area under fraction-flipped curve 0-4 h after induction (AUC4h, not background-subtracted), DNA-recorder readout of cleavage of the substrate (dimensionless); higher = more cleavage of the substrate by the protease variant
Conditions: temperature: 34 °C; time window: 0-4 h after rhamnose induction
Procedure: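 In vivo DNA recorder in E. coli TOP10(DE3) ΔrhaA at 34 °C. Each TEVp single-site mutant (parent TEVp 0) is paired with a single-site variant of the 7-mer TEVs (canonical ENLYFQ|S). The substrate sits between flexible linkers in a Bxb1-sfGFP-TEVs-SsrA fusion, so cleavage stabilises Bxb1 and speeds flipping of a recombination array, read by NGS. The value is the raw area under the fraction-flipped curve over 0-4 h after rhamnose induction (AUC4h), with ≥20 reads per time point. It is not background-subtracted; inactive controls average about 0.047.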
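Also: Bxb1 expression induced with 0.2% (w/v) L-rhamnose at OD600 near 0.5, cultures sampled hourly, flipped fraction per protease–substrate barcode pair counted by paired-end Illumina sequencing.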

Row | Variant | area with substrate ENLYFQA | area with substrate ENLYFQD | area with substrate ENLYFQE | area with substrate ENLYFQI | area with substrate ENLYFQL | area with substrate ENLYFQQ | area with substrate ENLYFQR | area with substrate ENLYFQS | area with substrate ENLYFQT | area with substrate ENLYFQK
1 | Q194W | 0.0847 | 0.0555 | 0.0634 | 0.0719 | 0.0746 | 0.0374 | 0.043 | 0.1 | 0.0581 | –
2 | Q194A | 0.0944 | – | – | – | – | – | – | 0.112 | 0.111 | 0.0574
3 | S171Y | 0.0574 | – | – | – | 0.0654 | – | 0.0522 | 0.0616 | 0.0594 | –
4 | P134R | 0.0859 | 0.0355 | – | – | 0.0702 | – | 0.0629 | 0.089 | 0.069 | 0.0583
5 | G150A | 0.0529 | 0.0571 | – | – | 0.0619 | – | – | 0.0606 | – | –
6 | G150Y | 0.0587 | – | – | – | 0.0554 | 0.0196 | 0.0405 | 0.0582 | 0.0531 | –
7 | P155G | 0.0634 | – | – | – | 0.0372 | – | 0.0408 | 0.0594 | 0.0495 | 0.0583
8 | K185N | 0.112 | – | – | – | – | 0.0731 | 0.057 | 0.111 | 0.059 | 0.0794
9 | C111A | 0.0822 | – | – | – | – | 0.0823 | 0.0542 | 0.104 | – | –
10 | I110F | 0.0377 | – | – | 0.0546 | 0.0463 | – | 0.0682 | 0.0578 | 0.0571 | 0.0536
11 | I110R | 0.048 | – | – | – | – | – | 0.0545 | 0.0559 | – | –
12 | T119S | 0.0885 | – | – | – | – | – | 0.0639 | 0.104 | 0.0604 | –
13 | T119A | 0.0885 | – | 0.0626 | – | – | – | 0.0641 | 0.102 | 0.0729 | 0.0463
14 | T119Q | 0.122 | – | – | – | – | – | 0.0435 | 0.135 | – | –
15 | S158E | 0.0698 | – | – | 0.0321 | – | – | 0.0528 | 0.0799 | – | –
16 | N172H | 0.0738 | – | – | 0.0079 | 0.0542 | – | – | 0.0641 | 0.0611 | 0.0377
17 | N172R | 0.0538 | – | – | 0.0444 | – | – | – | 0.0626 | 0.0533 | 0.0535

Row | Variant | area with substrate ENLYFQA | area with substrate ENLYFQD | area with substrate ENLYFQE | area with substrate ENLYFQI | area with substrate ENLYFQL | area with substrate ENLYFQQ | area with substrate ENLYFQR | area with substrate ENLYFQS | area with substrate ENLYFQT | area with substrate ENLYFQK
18 | S154I | 0.111 | – | 0.0679 | 0.0707 | – | – | – | 0.106 | 0.0685 | –
19 | E195L | 0.0946 | 0.0686 | – | – | 0.0542 | 0.059 | – | 0.0936 | – | –
20 | Q198S | 0.0681 | 0.0729 | 0.0651 | 0.0529 | – | 0.063 | 0.0591 | 0.0999 | 0.0677 | 0.0566
21 | Q198P | 0.1 | – | – | – | 0.101 | 0.0638 | 0.0487 | 0.0874 | – | –
22 | T147S | 0.102 | – | 0.0537 | – | – | – | – | 0.0784 | – | –
23 | L190P | 0.0685 | – | – | 0.0632 | – | 0.0646 | 0.0638 | 0.0851 | 0.0616 | 0.0688
24 | L190D | 0.0834 | – | 0.0702 | – | 0.0661 | – | 0.0411 | 0.0855 | 0.056 | 0.0721
25 | S169Y | 0.0523 | – | – | – | – | – | – | 0.0609 | – | –
26 | F187A | 0.0852 | 0.0628 | – | 0.037 | 0.0504 | – | 0.0598 | 0.0868 | 0.064 | 0.0819
27 | F187G | 0.0573 | 0.0579 | – | 0.0503 | 0.0546 | – | 0.0501 | 0.0665 | – | 0.0581
28 | T181H | 0.0543 | 0.0283 | – | – | 0.0537 | 0.0489 | 0.0527 | 0.0574 | – | –
29 | T181K | 0.0573 | – | – | 0.0591 | 0.0599 | – | 0.0497 | 0.059 | – | 0.062
30 | T181V | 0.0728 | 0.0836 | – | 0.0869 | 0.0587 | – | – | 0.0838 | 0.0553 | –
31 | G166E | 0.0526 | – | 0.0474 | – | 0.0503 | 0.0527 | – | 0.052 | 0.0501 | 0.0478
32 | E103S | 0.0837 | – | – | – | – | – | 0.0665 | 0.104 | 0.0684 | 0.0748
33 | V183G | 0.0629 | – | – | – | – | – | 0.0518 | 0.0564 | 0.0316 | –
34 | V113W | 0.0814 | – | – | – | 0.0791 | 0.0541 | 0.0484 | 0.0899 | – | –

Same assay, conditions: temperature: 34 °C; time window: 0-4 h after rhamnose induction

Row | Variant | area with substrate ENLYFQN | area with substrate ENLYFQP | area with substrate ENLYFQV | area with substrate ENLYFQC | area with substrate ENLYFQG | area with substrate ENLYFQH | area with substrate ENLYFQM | area with substrate ENLYFQW | area with substrate ENLYFQY | area with substrate ENLYFQF
35 | Q194A | 0.0673 | 0.0538 | 0.0645 | – | – | – | – | – | – | –
36 | S171Y | 0.0238 | – | – | 0.0549 | 0.0659 | 0.0773 | 0.0541 | 0.0354 | – | –
37 | P134R | 0.0654 | – | – | 0.0993 | 0.0778 | 0.0336 | – | – | 0.0961 | –
38 | G150A | – | – | 0.0638 | – | 0.0684 | – | – | 0.0632 | 0.059 | –
39 | G150Y | 0.0632 | 0.0507 | – | 0.0592 | 0.185 | 0.0511 | 0.054 | 0.0654 | – | –
40 | P155G | 0.0494 | – | – | – | 0.0545 | 0.0513 | 0.0468 | 0.0613 | – | –
41 | K185N | 0.0677 | – | 0.0593 | 0.114 | 0.0867 | – | 0.0897 | 0.0575 | 0.114 | 0.0781
42 | C111A | – | – | – | 0.114 | – | – | – | – | – | –
43 | I110F | 0.0613 | – | 0.0661 | 0.067 | – | 0.071 | 0.0584 | 0.104 | 0.0555 | 0.0443
44 | I110R | 0.0692 | – | – | 0.0489 | 0.0503 | – | – | 0.0553 | – | 0.0414
45 | T119S | 0.0652 | – | – | 0.111 | – | – | – | – | – | –
46 | T119A | – | 0.0586 | – | 0.138 | – | 0.0724 | 0.11 | 0.0735 | 0.0847 | –
47 | T119Q | – | – | – | 0.0257 | – | – | – | – | – | –
48 | S158E | – | – | – | 0.0782 | 0.0604 | – | – | – | 0.0703 | –
49 | N172H | 0.0635 | – | – | – | 0.0618 | – | – | 0.0032 | – | –
50 | N172R | 0.0568 | 0.0642 | 0.0716 | 0.0563 | – | – | 0.0725 | 0.0563 | 0.0703 | –
51 | S154I | – | – | – | – | 0.119 | – | – | – | – | –

Row | Variant | area with substrate ENLYFQN | area with substrate ENLYFQP | area with substrate ENLYFQV | area with substrate ENLYFQC | area with substrate ENLYFQG | area with substrate ENLYFQH | area with substrate ENLYFQM | area with substrate ENLYFQW | area with substrate ENLYFQY | area with substrate ENLYFQF
52 | E195L | 0.0817 | – | – | 0.0889 | 0.0501 | – | – | – | – | –
53 | Q198S | – | 0.0426 | – | 0.0976 | – | 0.0732 | 0.0854 | 0.0578 | 0.0897 | –
54 | Q198P | 0.0749 | 0.0642 | – | – | – | – | – | – | – | –
55 | T147S | – | 0.0464 | – | – | 0.0803 | – | – | – | 0.0645 | –
56 | L190P | – | – | – | 0.0868 | 0.0813 | – | – | 0.0643 | 0.0604 | –
57 | L190D | 0.0503 | – | 0.0817 | 0.105 | – | 0.0642 | 0.0637 | – | 0.0622 | 0.06
58 | S169Y | – | – | – | – | – | – | 0.0523 | – | – | –
59 | F187A | – | – | – | – | – | 0.0626 | – | 0.0411 | 0.0543 | –
60 | F187G | 0.0525 | 0.0637 | 0.0703 | 0.0663 | 0.0601 | 0.0461 | 0.0629 | 0.0554 | – | –
61 | T181H | – | – | – | 0.0706 | 0.0585 | – | 0.0423 | – | – | –
62 | T181K | 0.049 | 0.066 | 0.0548 | 0.059 | – | – | – | 0.05 | – | 0.059
63 | T181V | – | – | – | 0.0598 | – | 0.0528 | 0.0731 | – | 0.0667 | 0.0535
64 | G166E | – | – | 0.0391 | – | 0.0316 | 0.0544 | – | 0.0506 | – | –
65 | E103S | – | – | 0.0634 | – | – | 0.101 | – | 0.0299 | 0.0798 | –
66 | V183G | 0.0599 | – | – | 0.0817 | 0.0331 | 0.0498 | – | – | 0.037 | 0.0388
67 | V113W | 0.0682 | 0.0687 | – | 0.0724 | – | – | 0.0583 | – | 0.0782 | –
